Results published in the supplement of paper PMC10126150.
Sequences with one replicate were seen in a single cluster, so their values are uncertain.

Test system: ATP
Assay: switch fluorescence ratio, 500 uM ATP over buffer (Cy3 cluster intensity, sum of 5 cycles each) (fold (ratio)); higher = stronger signal-on switching upon ATP binding; sequences stand for … in TCGTCGGCAGCGTCAGATGTGTATAAGAGACAGTTTTTTTTTTTTTTTTTTTTTTTTT…TC
Conditions: aptamer strand: ATP DNA aptamer (quencher-CACCTGGGGGAGTATTGCGGAGGAAGG + anchor), 100 nM annealed; ATP concentration: 500 uM; one replicate
Outline: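 Between each of five buffer/ATP cycles, the flow-cell was stripped with NaOH and re-annealed. Each cycle imaged Cy3-labelled switching-strand clusters, annealed to 100 nM quencher-labelled ATP aptamer on a modified Illumina MiSeq flow-cell, first in selection buffer and then after 15 min with 500 uM ATP at 22 °C. The fluorescence ratio is summed target-cycle over summed buffer-cycle Cy3 intensity per cluster, averaged per switch-domain sequence, with clusters outside 100-1000 RFU excluded.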
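Also: ATP exposure 15 min at 22 °C before imaging.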

Sequence	switch fluorescence ratio
CTTCTTGCT	0.994
GCTAAGGGGG	1.01
ATCTCATTAG	1.02
TTCATTACAA	1
GCATGAATGG	0.988
CGGGCGCACG	1.05
TCAGTCACTT	0.995
TCGCAAAGTT	1.12
AGGGCGAGCC	0.992
TTTAGATTC	0.983
CCGAAGTTGT	2.32
GCGCGGTTGG	0.994
GGGTGGAGGT	1.02
TATTTATTAT	0.982
ACGCTTTCAT	1.01
CGAGTCAGGG	1.1
CGCAAACGTG	1.66
ATCAGGCGT	1.05
TCACTGATTA	1.02
CCCAACCCAA	1.2
TAGCTGTATG	0.991
ATTTCGGCC	0.967
AGAATTAGCG	1.01

Sequence	switch fluorescence ratio
GCAACGGATC	1
AAACTAAAAT	1
ATCCAGTACA	1.03
CTCGGTTACG	1.01
ATCCTCAATT	1.13
CATACCTACT	1.33
ACTGGTTTGC	1
TTGCTACATT	1.04
AGTGATGGTC	0.997
ATATGCCATC	1.04
AGGCGAATCT	0.982
TAATAAAAGT	0.987
ACCTGTCTTT	1.02
TTTCTTCTCC	1.16
GTGTCAGCTC	1.01
CGGCGGCTCC	3.09
GGGAGCCCGA	1.04
TCAATAAGAG	0.987
ACCCGGCAAA	1.33
ATCGGCAAAG	1.07
TTCGTTCTGC	1.03
TTTGGGCCAG	1.03
ATTCCTCACC	1.27

Sequence	switch fluorescence ratio
GGCGAACGTG	0.986
ACGGGTGGT	1.02
CAACTGCAAC	2.66
ATTCCAGGTC	1.09
CTCGGCTGTG	1.05
GATGTTTCCT	0.955
GGATACCCGA	1.04
ATTTAAAAGA	0.992
CTGGCGTACG	0.951
ACGTACCAAG	1.39
GGTCTGCGAT	1.19
AAGAATCTAA	0.962
TGCCGGCCAG	0.974
GGGTCGTCTA	0.961
TTAGTCCGCT	1.27
CCATTGGGGC	0.884
CGTTGTATTG	1.02
GACATTAGTG	0.999
CACAGGCGCT	1.01
GCTGAAAATT	0.978
CGGCCAACGG	1.05
ACAACAGTGC	1.12
ATTCGCAAA	2.08

Sequence	switch fluorescence ratio
CCAAGGGGAA	1.03
CATACCAGAG	1.05
TTATGGTAT	1.01
ATATGTCCGT	0.994
CTAGTGAATA	1.03
CATACTGATC	1.14
TTCAGAACAA	1.12
TCTGTATTA	1.03
ATATCTGCAT	1.08
CCGGAGGGCA	1.22
GGCATCAGGT	1.05
CGCGATTGGG	1.08
CCCACTCGGG	1.02
AGGGCCGTTT	1.05
TGCCTAGCCT	1.01
TTACAGAACA	1.09
AAAGTTTCCT	1.13
TGGTCAGTTT	0.957
CTTGTTGCTG	1.02
CTTCTGACGG	1.84
CTCTAGAACC	1.02
CCCTGAGGCC	0.927
ACGACACTGT	1.52

Sequence	switch fluorescence ratio
AAAAAGCTG	0.884
GTTTGTTGAC	0.996
GTTACGTCAC	1.76
CGGGCGGGTC	1.02
AATGTGACGC	1.03
CGCGTCTCTT	1.03
GCTAAAAAAG	1.01
TTACAGCGTT	1.03
CGCATTGGAG	1.04
ACTCGTTTAC	1.44
CAGGTGTGTC	1.08
TGGAAAGTAT	1.01
CGTTTAGGCG	0.932
GGTGGAGAAC	0.99
GCAACATTGG	0.985
CCCGCCTTAA	2.31
GGACTTGAGT	1.02
GACGGGTCAT	0.934
CTTGCCTGCC	1.35
CGTTATAACT	0.947
AGTACCCGTT	1.01
AGGAGGGATT	1.02
GAATACCGCA	1.49

Sequence	switch fluorescence ratio
TTGCAGTTAT	0.973
CCGAGCTTCT	2.09
TTTACAGTGT	1
CTTTTAATTA	1.04
GCGACTGTA	1.02
TCGGGTCTTA	0.973
TCGTGCCACG	0.934
GACAGCGATT	1.21
GGATGTGCAG	1
AATTCATCAG	0.977
TAGTTTTG	0.988
GAGGGTGCCT	1.03
TTTGATCAAC	1.02
GGATCCTGCT	0.955
GCTCCACGAG	1.07
CATAATGTTT	0.991
TTTCCAGTCG	0.984
TATTTATCGA	0.989
TACTGAGCTT	1.04
ATTTGCGTCG	0.957
CGTTATGTGA	0.968
GCCCCCAAAC	1.13
AAACTCGTTT	0.968

Sequence	switch fluorescence ratio
GGAGGGCGCT	1.01
ACTCAAGGAC	1.28
TTGTCTCTAA	0.973
AGAGATTTGT	1.01
GATTTCTAAT	0.994
GTTCTGTGT	0.984
AATACATGGT	0.967
GCGGAGCTAG	1.08
TTAAAAGCAC	1.11
AAAGGTTCGA	0.965
CACCCGGCTG	1.33
GGTGTCACTG	0.993
GCATCGCGGT	0.977
GGCTGCTAAA	1.02
TTTCTCCTAG	1.02
ATCAATGTGT	0.967
GTACTTCGGA	0.998
GTGTTTGCAG	0.976
GTTGCGGACT	0.959
